According to publication PMC4336329 (PLoS ONE, 2015):
Screen size: about 310,000 compounds; about 2,200 (0.71%) showed an effect of 50% or more. Effects have a minus sign here. The list shows a part of the results.

Biological target: human ether-à-go-go-related gene (hERG) potassium channel (human, UniProt Q12809)
Assay: primary screen, population patch clamp on CHO cells stably expressing hERG

human ether-à-go-go-related gene (hERG) potassium channel, sequence (Q12809 whole entry, looked up): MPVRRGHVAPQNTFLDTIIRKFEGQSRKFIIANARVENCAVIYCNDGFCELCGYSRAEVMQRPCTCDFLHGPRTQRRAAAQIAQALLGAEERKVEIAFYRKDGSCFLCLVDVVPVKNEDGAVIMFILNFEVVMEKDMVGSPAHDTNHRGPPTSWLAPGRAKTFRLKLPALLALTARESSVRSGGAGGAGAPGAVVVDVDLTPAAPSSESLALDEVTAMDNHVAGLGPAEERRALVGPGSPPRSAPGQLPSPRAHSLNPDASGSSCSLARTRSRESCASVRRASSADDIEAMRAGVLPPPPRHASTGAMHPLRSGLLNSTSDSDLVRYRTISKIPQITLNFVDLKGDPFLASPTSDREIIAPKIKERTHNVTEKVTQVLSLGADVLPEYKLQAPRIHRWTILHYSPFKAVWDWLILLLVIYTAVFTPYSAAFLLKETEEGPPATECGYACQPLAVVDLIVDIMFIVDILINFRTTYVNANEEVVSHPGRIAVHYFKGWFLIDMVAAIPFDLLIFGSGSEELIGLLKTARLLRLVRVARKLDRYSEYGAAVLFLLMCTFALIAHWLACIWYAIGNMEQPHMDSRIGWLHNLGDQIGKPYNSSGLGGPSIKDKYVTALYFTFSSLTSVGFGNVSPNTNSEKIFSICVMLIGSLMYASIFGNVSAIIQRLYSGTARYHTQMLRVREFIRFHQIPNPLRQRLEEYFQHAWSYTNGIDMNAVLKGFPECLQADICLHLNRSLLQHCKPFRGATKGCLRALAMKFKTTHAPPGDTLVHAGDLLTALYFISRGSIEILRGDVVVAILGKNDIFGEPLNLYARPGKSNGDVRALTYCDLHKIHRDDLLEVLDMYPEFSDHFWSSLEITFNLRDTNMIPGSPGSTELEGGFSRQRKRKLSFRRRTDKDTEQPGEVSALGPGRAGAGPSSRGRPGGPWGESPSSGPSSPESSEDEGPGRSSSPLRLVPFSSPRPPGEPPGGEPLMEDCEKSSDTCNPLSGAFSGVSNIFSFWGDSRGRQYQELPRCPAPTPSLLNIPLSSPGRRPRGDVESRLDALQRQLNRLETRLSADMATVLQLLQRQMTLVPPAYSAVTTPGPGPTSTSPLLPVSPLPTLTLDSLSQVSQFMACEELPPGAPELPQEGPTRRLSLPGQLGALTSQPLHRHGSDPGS

| Structure (SMILES) | hERG current change (%, negative = inhibition) at 1uM [%] |
| --- | --- |
| COc1ccc(N2CCN(C(=O)CN(c3cccc(OC)c3)S(=O)(=O)c3ccccc3)CC2)cc1 | -2.8 |
| Nc1nc(SCc2ccc([N+](=O)[O-])cc2)nc2nc3c(cc12)CCCC3 | 12.2 |
| COc1ccc(NC(=O)CC23CC4CC(CC(C4)C2)C3)cn1 | 12.5 |
| O=C(O)c1cccc(NC2=Nc3cccc4cccc2c34)c1 | 6.94 |
| COc1ccc(CC(=O)NC(c2ccccc2)c2ccc(C)cc2)c(OC)c1 (stereo not drawn) | 15.4 |
| COC(=O)C1(C)NC(c2ccc(Cl)cc2)C2C(=O)N(c3ccccc3)C(=O)C21 (stereo not drawn) | 8.1 |
| Cc1nn(C)c(C)c1S(=O)(=O)Nc1ccc2c(c1)OCO2 | 7.49 |
| Cc1ccnc(NCc2ccc(Br)cc2)c1 | 2.72 |
| COc1cc(C(=O)Nc2ccccc2C(=O)Nc2ccccn2)cc(OC)c1OC | 6.84 |
| O=C(Nc1ccc(-c2nc3ccccc3o2)cc1)c1ccc2c(c1)OCO2 | 8.83 |
| O=C(Nc1ccc2nc3n(c(=O)c2c1)CCCCC3)c1ccccc1Cl | -2.65 |
| CCOc1cc(/C=N/O)cc(Br)c1OCc1ccc(Cl)cc1 | 12.9 |
| Fc1cccc(/C=N/NC(=S)Nc2ccccc2Cl)c1 | 10.7 |
| O=[N+]([O-])c1ccc(OCc2cn([C@@H](CO)c3ccccc3)nn2)c(Br)c1 | 12.6 |
| Clc1ccc(CON/C=N/c2ncnc3sccc23)cc1 | 19.5 |
| COc1ccc(-c2nnc(SCC(=O)N3CCOCC3)o2)cc1 | 2.99 |
| O=S(=O)(c1ccc(Cl)cc1)N1CCSC1c1ccco1 (stereo not drawn) | 2.53 |
| O=c1cc(-c2ccc(O)cc2)oc2ccc3ccccc3c12 | 14 |
| CCOc1ccc(OCC(=O)OCC(=O)NCC2CCCO2)cc1 (stereo not drawn) | 10.4 |
| COCCN1C(=O)N[C@H](c2cccc(C(F)(F)F)c2)C(C(=O)OC)=C1C | 5.44 |
| Cc1ccc(S(=O)(=O)CCC(=O)Nc2cc(Cl)ccc2-n2cncn2)cc1 | 0.198 |
| Cc1ccc(S(=O)(=O)NC2OC(=O)C(Cl)=C2Cl)cc1 (stereo not drawn) | 5.69 |
| CCOC(=O)c1ccc(N=C(CC)c2c(O)n(C)c(=O)n(C)c2=O)cc1 | 0.473 |

| Structure (SMILES) | hERG current change (%, negative = inhibition) at 1uM [%] |
| --- | --- |
| CCCC(=O)NCCc1cc2ccc(C)c(C)c2[nH]c1=O | 12.1 |
| Cc1cc2ncn(C(=O)N3CCCC3)c2cc1C | 18.5 |
| CCCCC(C(=O)NC(C)(C)C)N(Cc1ccco1)C(=O)c1snc(C(N)=O)c1N (stereo not drawn) | 6.86 |
| CC(C)(C)C1CCC(=NNc2ncc(C(F)(F)F)cc2Cl)CC1 (stereo not drawn) | 2.6 |
| CN(C)/C=N/S(=O)(=O)c1ccc(Cl)cc1 | 7.7 |
| O=C(CCSc1ccccc1)N1CCOCC1 | 11.8 |
| CCOC(=O)c1ccc(NC(=O)CC2SC(=NC)N(C)C2=O)cc1 (stereo not drawn) | 4.96 |
| Cc1ccccc1-c1nnc(SCC(=O)N2CCCC2)o1 | 12.9 |
| CCN1CCN(c2ccc(S(=O)(=O)N3CCOCC3)cc2NC(=O)c2ccc(C)cc2C)CC1 | 5.62 |
| Cc1ccccc1N(C(=O)CCCC(=O)Nc1ccccn1)C(C(=O)NC1CCCC1)c1ccc(O)cc1 (stereo not drawn) | 9.05 |
| CCN(CC)CC(=O)c1c[nH]c2ccc(C)cc12 | -5.56 |
| CCOc1ccccc1-n1c(SCC(=O)NCc2ccco2)nnc1-c1ccncc1 | -8.04 |
| C=CCn1c(CCC(=O)O)ccc1-c1ccccc1 | -3.82 |
| O=C(NCCC1=CCCCC1)C1CCCN(S(=O)(=O)c2cnc[nH]2)C1 (stereo not drawn) | 10.1 |
| Cn1nc(C(F)(F)F)c(C#N)c1N1CCN(c2ccccc2F)CC1 | 8.97 |
| CN1CCCC2(CCCN(Cc3nc(Cc4cccc(C(F)(F)F)c4)no3)C2)C1 (stereo not drawn) | 2.71 |
| COc1cc(/C=C/C(=O)O)ccc1OCc1ccccc1C#N | 8.09 |
| COc1cc2[nH]c(=O)n(CCC(=O)N3CCC(N4CCCCC4)CC3)c(=O)c2cc1OC | 22.6 |
| COc1ccc(C(=O)NC(=S)NC2CCCCC2)cc1 | 12.3 |
| CCCC1(CCC)NC(=O)N(CC(=O)Nc2cccc(OC)c2)C1=O | 9.94 |
| CN(C)CCCN1C(=O)c2cccc3cccc(c23)C1=O | 0.723 |
| Cc1ccc(-n2[nH]c(C)c(/C=N/c3cccc(C)n3)c2=O)cc1 | 9.82 |
